PubChem BioAssay AID662 (National Center for Advancing Translational Sciences (NCATS), 2007)
Among all 71,000 compounds or so, about 1,800 (2.5%) were called active. This list was built around the results that the source calls inconclusive (neither active nor inactive); the mix of calls is not that of the screen. Calls come from the whole dose curve; as a rule, active = well fitted activation curve with a large enough effect in the signal ratio, with a control signal flat (not every such curve was filed as active); inconclusive = small, poorly fitted or top-dose-only effect, or effect the other way, or a change in a side signal; inactive = flat fitted curve, though single readings scatter; the % refers to the signal ratio. A potency beside an inconclusive call is a rough fit, not a confirmed value.

test: Cell signaling CRE-BLA (Fsk stim); conditions: CHO CRE-bla reporter (cAMP response element driving beta-lactamase), forskolin EC10, beta-lactamase ratio; activity change, negative = inhibition: at 38.2 µM (top of the series) unless noted; for activity change, negative = inhibition: % of control where 0% means no effect
Summary of the method: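 AC50 values, positive or negative, reflect shifts in EC10 NKH 477-induced CRE-bla reporter activity in CHO cells. Incubation lasted 3 h at 37 °C before CCF4 substrate (2 h, room temperature) and ratiometric 460/530 nm reading.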
Potency is the fitted concentration of half-maximal effect; tags give direction and shape of the fitted curve.

| SMILES | activity change, negative = inhibition | Potency |
| --- | --- | --- |
| Cc1ccc(C)n1-n1cnc2sc3c(c2c1=O)CCC3 | inconclusive: 17.4% |  |
| CCN1C2=C(C(=O)CCC2)C(c2ccc(O)c(Br)c2)C2=C1CCCC2=O | inconclusive: 18.7% |  |
| COc1ccc(-c2n[nH]c(C)c2-c2ccc(OC)c(OC)c2)c(O)c1 |  | inconclusive: 5.01 µM [rising, partial curve] |
| COc1ccc(N(CC(=O)Nc2ccc3c(c2)OCO3)S(=O)(=O)c2ccccc2)c(OC)c1 |  | inconclusive: 25.1 µM [rising, single point] |
| CC(C)(C)C(=O)Cn1c(=N)n(Cc2ccccc2)c2ccccc21 | inconclusive: 4.61% |  |
| COc1cccc(OC)c1C(=O)Nc1nnc(C(C)C)s1 | inconclusive: -22.7% [at 7.6 µM] |  |
| CCn1cc(C(=O)Nc2cc3c(cc2NC(C)=O)OCCO3)c(=O)c2ccc(C)nc21 |  | inconclusive: 3.16 µM [rising, single point] |
| O=C(Nc1cccc(NC(=O)c2cccnc2)c1)c1cccnc1 | inactive |  |
| CCCCCOC(=O)Cn1c(SCC(=O)Nc2ccccc2)nc2c1c(=O)[nH]c(=O)n2C | inconclusive: 19.6% |  |
| C=C1CC23C[C@H]4[C@@H]5[C@@]6(C)C[C@H](OC(=O)c7ccccc7)[C@@H](OC(C)=O)[C@]57[C@@H]2[C@@H](OC(C)=O)[C@H]1[C@@H](O)[C@H]3[C@H]7N4C6 | inactive |  |
| COc1cccc(CSc2nc3sc(C)c(C)c3c(=O)n2Cc2ccco2)c1 | inactive |  |
| O=C(CSc1ccc2nnc(-c3ccc(F)cc3)n2n1)NCC1CCCO1 (stereo unspecified) | inactive |  |
| Cc1ccc(NC(=O)CSc2nnc(-c3ccccn3)n2C)cc1 | inconclusive: 2.72% |  |
| O=C(NCCCN1CCN(c2ccccc2F)CC1)C1CCN(S(=O)(=O)N2CCOCC2)CC1 | inconclusive: -23.1% |  |
| CCN(C(=O)c1cn(C)c(=O)c2cc(OC)c(OC)cc12)c1ccccc1C |  | inconclusive: 10 µM [rising, partial curve] |
| CCOC(=O)c1ccc2c(c1)nc(SCc1cn3ccsc3n1)n2CC |  | inconclusive: 12.6 µM [rising, single point] |
| COc1ccc(OC)c(NC(=O)CSc2nc3cccnc3n2C)c1 |  | inconclusive: 10 µM [rising, partial curve] |
| CSC1=NCCN1C(=O)c1ccc(Br)o1 |  | inconclusive: 10 µM [rising, single point] |
| COc1ccccc1-c1nccc(N2CCN(C)CC2)n1 | inactive |  |
| O=NN(Cc1ccc(Cl)cc1)[C@@H](C(=O)O)c1ccccc1 | inactive: 4.32% [at 7.6 µM] |  |
| COC(=O)[C@H](C)[C@@H]1C[C@@]1(C)[C@@H](NC(=O)OCc1ccccc1)c1ccccc1 | inactive |  |
